According to PubChem BioAssay AID2147 (National Center for Advancing Translational Sciences (NCATS), 2009):
The campaign covered roughly 230,000 compounds. About 3,600 (1.6%) were called active. The inconclusive results got no clear call from the source; some entries with a clear call stand among them for comparison. Calls come from the whole dose curve; as a rule, active = well fitted inhibition curve with a large enough effect (not every such curve was filed as active); inconclusive = small, poorly fitted or top-dose-only effect, or another doubt; inactive = no such curve, though single readings can be large or run the other way. Where the call is inconclusive, the potency comes from a doubtful curve fit.

biological target: Lysine-specific demethylase 4E (Homo sapiens) (UniProt B2RXH2); assay: qHTS Assay for Inhibitors of Human Jumonji Domain Containing 2E (JMJD2E); settings: JMJD2E catalytic domain, FDH-coupled NADH fluorescence (FDH is formaldehyde dehydrogenase); series mostly up to 57.1 µM
Sequence of UniProt B2RXH2 (B2RXH2 whole entry, looked up, the tested form may be a part): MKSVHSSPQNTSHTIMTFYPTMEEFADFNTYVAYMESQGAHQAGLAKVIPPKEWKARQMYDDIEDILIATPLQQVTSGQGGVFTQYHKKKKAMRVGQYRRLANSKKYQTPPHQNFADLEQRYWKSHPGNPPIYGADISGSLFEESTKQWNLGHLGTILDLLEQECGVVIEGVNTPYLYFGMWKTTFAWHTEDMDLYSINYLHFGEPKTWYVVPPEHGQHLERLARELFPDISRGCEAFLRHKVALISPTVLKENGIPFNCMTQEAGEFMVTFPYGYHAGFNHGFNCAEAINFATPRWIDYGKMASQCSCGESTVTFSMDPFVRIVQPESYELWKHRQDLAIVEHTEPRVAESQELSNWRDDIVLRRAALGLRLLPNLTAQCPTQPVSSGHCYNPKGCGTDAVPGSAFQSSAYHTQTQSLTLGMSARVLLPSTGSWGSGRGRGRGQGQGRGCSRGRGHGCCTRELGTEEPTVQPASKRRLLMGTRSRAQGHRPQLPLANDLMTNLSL
Note: nearly all actives have a fitted effect of over 50% in size.
Potency is the fitted concentration of half-maximal effect; tags give direction and shape of the fitted curve.

| Compound | Potency |
| --- | --- |
| Cc1ccc(CN2CCSc3ccc(C(=O)NCc4cccnc4)cc32)cc1 | inconclusive: 31.6 µM [inhibitor, partial curve] |
| C=CCSc1nnc(-c2nnc(SCC=C)n2-c2ccccc2)n1-c1ccccc1 | inactive |
| CCOC(=O)c1c(NC(=O)C2C3C=CC(CC3)C2C(=O)O)sc(C)c1C (configuration not stated) | inconclusive: 28.2 µM [inhibitor, partial curve] |
| OCc1nnc2c3ccccc3c(-c3ccccc3)nn12 | inconclusive: 31.6 µM [inhibitor, single point] |
| O=C(O)C1=C[C@H](c2ccc(C(F)(F)F)cc2)C[C@H](OCc2ccc(CO)cc2)O1 | inactive |
| Oc1ccccc1CNc1ccc(OC(F)(F)F)cc1 | inactive |
| CCCC1CCC(c2nc(-c3cccnc3)no2)CC1 (configuration not stated) | inconclusive: 39.8 µM [inhibitor, single point] |
| Cc1ccc(C(=O)OCC(=O)NC(=O)c2cccn2C)cc1[N+](=O)[O-] | inactive |
| Cc1cccc2cc(CN(Cc3cccs3)C(c3nnnn3C3CCCC3)C(C)C)c(=O)[nH]c12 (configuration not stated) | inconclusive: 39.8 µM [inhibitor, single point] |
| CC(=O)NCC(=O)N(c1ccccc1)C1(C(=O)NC2CCCCC2)CCCCC1 | inconclusive: 31.6 µM [inhibitor, partial curve] |
| NC(N)=NNC(=O)c1ccccc1Cl | inconclusive: 35.5 µM [inhibitor, single point] |
| OCCN(Cc1ccccc1)Cc1ccccc1Cl | inconclusive: 28.2 µM [inhibitor, single point] |
| O=C(CC1c2ccccc2Oc2ccccc21)N1CCN(c2ccccn2)CC1 | inconclusive: 28.2 µM [inhibitor, partial curve] |
| CCCN1CCN(CCCNC(=O)Cn2nc(-c3ccc(C)cc3)ccc2=O)CC1 | inconclusive: 31.6 µM [inhibitor, partial curve] |
| Clc1cccc(OCCCN2CCCC2)c1Cl | inactive |
| NC(=O)c1ccccc1NS(=O)(=O)Cc1ccccc1 | inconclusive: 31.6 µM [inhibitor, partial curve] |
| O=c1[nH]c(=S)n(-c2cccc(Cl)c2)c(O)c1/C=N/N1CCOCC1 | inactive |
| COc1ccc2[nH]cc(CCNc3ccnc(-c4cccc(NS(C)(=O)=O)c4)n3)c2c1 | inconclusive: 39.8 µM [inhibitor, single point] |
| COc1ccc(C)cc1NC(=O)CC1COc2ccccc2O1 (configuration not stated) | inactive |
| COc1ccc2nc(C)c3cc(C)oc3c2c1 | inconclusive: 39.8 µM [inhibitor, single point] |
| ONC(=Nc1ccc(Cl)cc1)c1ccccc1 | inactive |
| CC(C)C(=O)N1N=C(c2ccc(NS(C)(=O)=O)cc2)CC1c1cccs1 (configuration not stated) | inconclusive: 28.2 µM [inhibitor, partial curve] |
| O=C(Nc1nc2ccccc2s1)c1ccc(F)cc1 | inconclusive: 39.8 µM [inhibitor, single point] |
| COc1ccc(-c2cc(-c3nnc(COC(=O)C4CC4C)o3)c3ccccc3n2)cc1OC (configuration not stated) | inconclusive: 3.16 µM [inhibitor, partial curve] |

| Compound | Potency |
| --- | --- |
| C=CCNc1nnc(SC2CC(=O)N(c3ccc(OCCC)cc3)C2=O)s1 (configuration not stated) | inactive |
| Brc1ccc(CSc2nnc(-c3ccco3)o2)cc1 | inactive |
| O=C(OCc1c(Cl)cccc1Cl)c1ccncc1 | inactive |
| c1coc(CNc2nc(-c3ccncc3)cs2)c1 | inconclusive: 5.01 µM [inhibitor, single point] |
| CCN(CC)CCOC(=O)/C=C/c1ccccc1OC | inconclusive: 28.2 µM [inhibitor, partial curve] |
| O=C(Nc1nc2n(n1)C(c1ccccc1)CC(c1ccc(Cl)cc1)N2)c1ccco1 (configuration not stated) | inconclusive: 39.8 µM [inhibitor, single point] |
| CCOC(=O)CCNC(=O)Nc1ccc2nc(C)n(Cc3ccc(Cl)cc3)c(=O)c2c1 | inconclusive: 25.1 µM [inhibitor, partial curve] |
| O=C(Cn1c(=S)[nH]c2ccccc21)c1ccccc1 | inconclusive: 35.5 µM [inhibitor, single point] |
| Cc1ccc(CN2C(=O)N/C(=C\c3cccn3-c3cccc(C(=O)O)c3)C2=O)cc1 | inactive |
| OC(CN1C2=NCCCN2c2ccccc21)c1ccc(Cl)cc1 (configuration not stated) | inactive |
| Cc1cc(/C=C2/NC(=O)NC2=O)c(C)n1C | inconclusive: 31.6 µM [inhibitor, single point] |
| Cc1ccc2oc(=O)c3cnn(CC(=O)N4CCN(c5ccccn5)CC4)c3c2c1 | inconclusive: 31.6 µM [inhibitor, single point] |
| COc1ccc(-c2cn3c(C)c(C(=O)Nc4cccc(C)n4)sc3n2)cc1 | inconclusive: 39.8 µM [inhibitor, single point] |
| Oc1ccccc1N=Cc1sc2ccccc2c1Cl | active: 22.4 µM |
| Cc1cc(C2CCCCC2)n(O)c(=O)c1 | active: 10 µM |
| COc1ccccc1NS(=O)(=O)c1cccc(NC(=O)c2cc3ccccc3oc2=O)c1 | inactive |
| O=C(CC(=O)c1cc(Cl)ccc1O)c1ccccc1 | inactive |
| NC(=O)c1nn(-c2ccccc2)nc1NC(=O)CSc1nnnn1-c1ccc(Cl)cc1 | inconclusive: 25.1 µM [inhibitor, partial curve] |
| O=S(=O)(c1cccs1)N1CN(Cc2ccc(F)cc2)c2nc3ccccc3nc21 | inconclusive: 39.8 µM [inhibitor, single point] |
| Cc1ccc2[nH]c(=O)c(CN(Cc3cccnc3)Cc3nnnn3CC3CCCO3)cc2c1 (configuration not stated) | inconclusive: 39.8 µM [inhibitor, single point] |
| COCCCNc1oc(-c2cccs2)nc1S(=O)(=O)c1ccc(C)cc1 | inconclusive: 35.5 µM [inhibitor, single point] |
| COc1cc(C(=O)Nc2nc3ccc(S(C)(=O)=O)cc3s2)cc(OC)c1C | inconclusive: 31.6 µM [inhibitor, partial curve] |
| CCn1c(/C=C/c2ccccc2)nc2ccccc2c1=O | inconclusive: 39.8 µM [inhibitor, single point] |
